Test results taken from the supplement of paper PMC3334620.
In all, about 33,000 sequences were measured (“E-score (-0.5 to 0.5)”: median about -0.032, highest 2% from about 0.36 on). The list shows a part of the results.

These sequences were tested against T1, Sko1 (UniProt Q02100) (assay: PBM E-score (8-mer binding enrichment) (E-score (-0.5 to 0.5)); higher = stronger / more preferred TF binding; most listed sequences are background and not binding sites). Conditions: protein concentration: 200 nM; construct: GST-full length.
T1 sequence: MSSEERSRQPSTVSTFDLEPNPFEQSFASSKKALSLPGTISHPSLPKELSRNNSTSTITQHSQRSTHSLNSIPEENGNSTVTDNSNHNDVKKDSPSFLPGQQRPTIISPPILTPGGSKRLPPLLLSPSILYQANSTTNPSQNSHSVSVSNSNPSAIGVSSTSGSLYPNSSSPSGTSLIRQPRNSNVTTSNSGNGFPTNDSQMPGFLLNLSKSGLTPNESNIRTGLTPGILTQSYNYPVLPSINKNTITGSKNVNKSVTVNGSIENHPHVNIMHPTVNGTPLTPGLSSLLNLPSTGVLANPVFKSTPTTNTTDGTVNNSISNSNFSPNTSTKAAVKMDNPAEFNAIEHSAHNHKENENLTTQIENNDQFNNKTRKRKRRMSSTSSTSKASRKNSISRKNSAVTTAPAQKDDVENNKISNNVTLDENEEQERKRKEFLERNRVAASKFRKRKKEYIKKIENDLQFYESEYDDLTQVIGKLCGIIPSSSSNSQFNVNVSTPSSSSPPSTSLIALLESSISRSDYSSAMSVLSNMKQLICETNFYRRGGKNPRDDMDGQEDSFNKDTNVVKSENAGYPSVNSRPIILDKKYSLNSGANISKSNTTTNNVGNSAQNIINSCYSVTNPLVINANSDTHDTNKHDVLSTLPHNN
Method in brief: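 E-scores (a modified Wilcoxon-Mann-Whitney statistic) were assigned by the Universal PBM Analysis Suite to every ungapped eight-base word pooled with its reverse complement. The input came from universal all-10-mer Agilent arrays made double-stranded by primer extension and probed with GST-tagged yeast transcription factors at about 100-200 nM. Fluorescent anti-GST detected bound protein, and masliner normalised the scans.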

Sequence	PBM E-score
ATAGAACA	0.0877
CGTCACTA	0.445
CCAATCAG	-0.279
AGCGGCAG	-0.147
ATGTACTA	-0.00357
CCGTGTTA	-0.0886
ACCTTTAG	-0.225
ACTAAGGC	-0.109
GCACGGCA	-0.072
AAATTCCA	0.0963
TCAGAGCA	-0.0464
GGGAGGTA	-0.198
ATATGATA	0.281
ACGCTGTG	0.239
GACTTAAC	0.0659
ACAACAAC	0.124
ACTCAAAT	0.235
AATTAATA	0.338
CGCTCCAG	-0.0473
GAGTGCGC	-0.0406
ATAATATA	0.268
ATCACGTG	0.411
AATCAAGC	0.103
AGACACCC	-0.159
CAACTTAC	0.0405

Sequence	PBM E-score
AGGTGTCG	-0.132
CTGGCCCA	-0.288
AGCCGCTA	-0.187
CATCAGGA	0.0868
CGCATGAC	0.34
TCGTGCAA	0.172
CCGGCTTC	-0.267
GAGGGTGC	-0.294
AAGTTGAT	0.125
CATAATCA	0.216
CCTCTCTC	-0.257
AGTGTCTG	-0.169
ACTGATGC	-0.197
ACCCGGTC	-0.324
ACTTATTC	0.0593
AAGCTTCG	-0.166
TAGGACCA	-0.122
CGTGCGAC	0.0911
CATCCAAA	0.168
AGTGGCAG	-0.195
ATTATATG	0.176
GGTTCTCA	-0.176
CACTTCGG	0.0598
CTCAATGA	0.195
CCCCGTAG	-0.2

Sequence	PBM E-score
TAACATTA	0.187
AGCAAAGC	0.0158
CCTCACGA	-0.182
TGCGAAAA	0.171
ATAATTCC	0.143
GTCCGGGA	-0.0399
ATCTCACA	0.0103
CCAATATC	-0.188
ACCTACCC	-0.289
AAGAGAGG	-0.17
GAAAAGTC	0.0461
AGAATGCT	0.00749
TACATGGA	-0.0702
AAATGTTG	0.103
CCAGCCAC	-0.255
ATTATTGA	0.109
ATGAAACG	0.0866
GAGCCTAC	-0.0608
CCCCGTAA	0.0319
CACAGGAC	-0.0874
CAAGCGCC	-0.262
AGGGTTGC	-0.0198
AGTAGTTC	0.107
GTCGGGCA	-0.121
ACCTAGAG	-0.196

Sequence	PBM E-score
ACTTTAGG	-0.0354
AAATCGAT	0.134
CTTTGCAA	-0.117
GACTCCGC	-0.206
CCTCTCAG	-0.389
GGCGCTAA	-0.178
AGACGTTG	0.111
ACCGGAAC	-0.175
ACCCGTTG	-0.33
CACCGTGC	-0.0312
CCCGGACC	-0.222
CCGCGGAA	-0.228
CTACGAAA	0.214
CATAAAGA	0.279
AGCACCAC	-0.158
CTCTGACA	-0.0282
AATACCGT	0.136
GCCGTGCC	-0.309
TCAGTACA	-0.0302
ATGTTCCC	-0.243
AACTGCAA	-0.0572
CCCCGTCA	0.0543
ACCCCTAG	-0.227
ACGTATAA	0.457
ATTCCAGC	-0.137

Sequence	PBM E-score
CGGATGCA	-0.246
GGTGAGAC	-0.149
GAATTTGC	0.06
AGTCTTCC	-0.203
ACTAAAGT	0.0923
AGGAAAGC	-0.187
CGACAATC	-0.0122
GAACTCAC	-0.00045
CTTGAAGC	-0.104
ATAGGCGC	-0.208
ACTGACCC	-0.242
AGTAGTGG	-0.0292
CGGGTCTA	-0.0366
AATTAGAA	0.133
AGGCGGGC	-0.11
ACATGTCA	0.294
ACCCGTAC	-0.107
ATAAAGGC	-0.124
AGAACTCA	-0.0391
AGTGATCA	0.0281
CCAAACCA	-0.0285
GGCGCACC	-0.36
AGACGTAT	0.441
AACTGCAG	-0.163
GTTATTAA	0.206

Sequence	PBM E-score
GCTGCAGA	-0.132
GACACTTA	-0.00276
AAACACTT	0.0996
ATGTCAAA	0.244
TAGGATCA	0.0401
AACGCGAG	0.0305
ACACGCAA	0.376
GCCCCGGA	-0.37
GCAACCCA	0.0272
AGTTTGAT	-0.0174
CAACCCCA	-0.0938
CAAAGTGA	0.0251
CAGACACC	-0.178
ACGATACG	0.302
CGGTCTCC	-0.293
CGAAGGGA	-0.0711
GGCAACGA	-0.0624
GAATCGGA	0.0357
CCCGACCG	-0.326
CTAGTCCA	-0.241
CTTTTAAA	0.19
CCGCAGCA	-0.216
ATTACCTG	0.067
AAGGCCGT	-0.196
ACCGCATG	0.136

Sequence	PBM E-score
AGTGTTAC	0.165
AGGCGCCG	-0.0266
ACGCTTGA	0.162
AAATGGCA	0.0596
GTAGTATA	0.148
AAGGCTTA	-0.102
CATGCTCG	-0.134
ATGGGACG	-0.0288
CAAAGGGC	-0.252
ATGTTAAT	0.129
GAGGGACA	-0.236
CCAGCCGC	-0.189
CCATTGAC	-0.0416
AGATTAAA	0.227
ATTCTAAA	0.16
TCCGTTCA	-0.237
AGAGTACG	0.184
AACGTAAT	0.48
AGGCTCGC	-0.31
CGAAGGAA	-0.0432
ATAAGGGA	0.136
ATCGGAGC	-0.332
CCCGATGC	-0.195
GCCCTGGA	-0.37
ACACAAAC	0.144

Sequence	PBM E-score
ACACCAGT	-0.153
AGAACCCA	-0.151
TATTTGGA	0.151
GGCTATGA	0.0326
CATAGGAA	-0.0546
GAGGACCA	-0.0484
AGTCCTCC	-0.279
CCACGAGA	-0.206
CCCAGACA	-0.194
GCACTGAC	0.0051
CGCGCAAC	-0.0161
ATGGACCA	0.0217
ATCCGTGC	0.00159
GTGTGTTA	0.236
AATCTAAT	0.115
CGGCGGAA	-0.197
CTAGAGTA	0.0983
AATTCGTC	0.331
ATCAATAG	0.18
AACCCTTC	-0.00059
CTCCCTCA	-0.248
CCACGTTA	0.289
ATAGGACA	0.00759
AAATGGGG	-0.311
ACTATCCA	-0.112

Sequence	PBM E-score
CCTACGAC	0.0224
CGCTGAGC	-0.0872
TCGTAAAA	0.263
CCAACCAA	-0.0674
ACACGGCC	-0.305
CAGCCCTC	-0.334
AGGCGGTG	-0.249
ACTAGCCG	-0.145
CCTCTGCA	-0.229
CTATGGCA	-0.0917
TCATGCCA	0.147
CTCTCCAA	-0.0315
CCGTTGAG	-0.148
ATGGCACA	-0.118
TCTTTTAA	0.258
CCGCGGGA	-0.201
ACCGTAAG	0.123
ACTAACTA	-0.0162
CCGGAGGA	-0.38
ATGGGCTA	0.0698
AAGTCTCG	-0.16
CAAAAGTA	0.236
GGTTTTTA	0.0263
AGTTGGGC	-0.117
GACCGAAA	-0.028

Sequence	PBM E-score
ATAGCTAC	0.113
ACAATAAA	0.0772
CCCGTTAA	-0.242
GCTCGAGA	0.0461
ACGACGCT	-0.112
AACATTGG	-0.187
AGGTGTTA	0.109
AGACATCA	0.138
CAGGGTTA	-0.146
ACTGTCAC	0.00427
CGACGTCC	0.169
GTTGTACA	0.24
GGCCATGA	0.004
GCTTATGA	0.0958
GCCGTTGA	-0.137
CGGGGTCC	-0.232
GCTCGATA	-0.192
AGATCTCA	0.0106
GAGAACGA	0.0376
AAGGGTCG	-0.0484
CATCGACG	0.0461
AGGCATTA	0.0324
GGCTGTAA	-0.169
GTAGTGAC	0.321
CGCATCCA	-0.0549

Sequence	PBM E-score
TCTCTGCA	-0.124
AAGTTGTA	0.157
CCACATCG	-0.108
CGGGGATA	-0.253
ACGCCACC	0.0629
ATAATTTG	0.224
AAACAACA	0.14
CGATTATC	-0.0402
TCTGAAGA	-0.217
CCTCGACA	-0.152
CTGTCAGA	-0.211
CTACAGTA	-0.0801
CTGCAATC	-0.0429
TAAGATGA	0.241
ATCCGTAG	-0.265
GACAATAC	0.222
ATGGAGAA	0.0187
AGTCCGAC	-0.103
AGAACGGA	-0.117
GGAAATAC	0.148
AGCGTTAC	0.0252
CCCCAGAC	-0.206
ACGCAACG	0.377
ATATAGAC	0.141
CACCGTAA	0.0886

Sequence	PBM E-score
ACTCAAAA	0.0983
CACCTCGA	-0.0198
AGATGGAT	-0.191
AGTCGTTC	0.0772
ATTAGAGG	-0.0103
CCCAGGTC	-0.258
ATTCTTAC	0.24
CCTGCGCC	-0.236
AAAACTCG	0.15
TCACTGAA	-0.00771
CATCTCTC	-0.0287
AAAACTGA	-0.0502
GATGGCAC	-0.165
AGTCTGAC	0.0257
GGTGGGTA	-0.177
CGCGACCA	-0.0344
CACGATTA	0.119
ATCCTTCG	-0.0893
CGTAGCGA	0.141
ACTCGAAT	-0.079
TCAGCGAA	-0.112
CAGCTTCA	-0.0163
AGATTATA	0.157
AAACACGA	0.163
ATTCTCCG	-0.0461

Sequence	PBM E-score
ATTTTGTA	0.152
CACACGAG	-0.191
CCGCAAGG	-0.232
ATTGCGGA	-0.0563
GAGTCCAC	-0.214
CTAACGCA	0.209
AAGACGCT	-0.168
TATGAACA	0.148
GCGAGGCA	-0.14
AAATGGAA	0.00883
ATTTAATA	0.247
AAGAAGCA	0.0475
GCGCTACC	-0.21
TTATCAAA	0.205
CGAGAAAA	0.024
CTAATCGC	0.00167
AGTAATAT	0.224
CTCAGACC	-0.126
GTGAGGTA	0.0525
CAGCCACC	-0.169
CAGGGCTC	-0.29
CACAAAAG	-0.0941
ATCGAGAC	-0.0154
AGCCATAT	-0.0111
ATCGTGCA	0.117

Sequence	PBM E-score
CAGGTTCA	-0.0788
CTGGACTA	-0.222
CGTGTGAA	0.0571
GCGATCTA	0.014
CCAAGGAG	-0.15
CTCTGGTC	-0.177
AAGGCAGA	-0.237
GTCTCCAC	-0.0502
CCCTATAA	-0.143
ACGTACTC	0.432
TCCATAAA	-0.0326
CGATCCTC	-0.0326
AGATAATC	0.0844
GATCCAGA	-0.00176
CAGCGATA	-0.154
AATGGTTA	0.0449
CCACGCCG	-0.292
AAGATTCA	0.0314
AAGACTAT	0.0616
